# Measurements from the supplement of paper PMC8728848.
# The list shows a part of the results.
# Columns and labels:
# Assay in all cases: glycan array binding signal (z-score within array); higher = stronger binding
# Conditions in all cases: glycan notation: IUPAC condensed, linker removed; mutation: D22R
# [1] = molecular target: Neu5Ac(a2-6)Gal(b1-4)GlcNAc(b1-6)[Gal(b1-3)GlcNAc(b1-3)]Gal(b1-4)Glc
# Method in brief: (§1)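 Columns mapping to the same glycan were averaged after glycan names were converted to IUPAC-condensed notation. The data come from 3228 arrays in the Consortium for Functional Glycomics database, limited to those with an available protein sequence. Binding is reported as a within-array Z-score averaged across arrays of one protein sequence and across linkers.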
# [2] = molecular target: Neu5Ac(a2-6)Gal(b1-4)GlcNAc(b1-6)[Gal(b1-3)]GalNAc
# Method in brief: as §1
# [3] = molecular target: Neu5Ac(a2-6)Gal(b1-4)GlcNAc6S
# Method in brief: as §1
# [4] = molecular target: Neu5Ac(a2-6)GalNAc
# Method in brief: as §1
# [5] = molecular target: Neu5Ac(a2-6)GalNAc(b1-4)GlcNAc
# Method in brief: as §1
# [6] = molecular target: Neu5Ac(a2-6)GalNAc(b1-4)GlcNAc6S
# Method in brief: as §1
# [7] = molecular target: Neu5Ac(a2-6)GlcNAc(b1-4)GlcNAc
# Method in brief: as §1
# [8] = molecular target: Neu5Ac(a2-6)GlcNAc(b1-4)GlcNAc(b1-4)GlcNAc
# Method in brief: as §1
# [9] = molecular target: Neu5Ac(a2-8)Neu5Ac
# Method in brief: as §1
# [10] = molecular target: Neu5Ac(a2-8)Neu5Ac(a2-3)Gal(b1-3)GalNAc(b1-4)[Neu5Ac(a2-3)]Gal(b1-4)Glc
# Method in brief: as §1
# [11] = molecular target: Neu5Ac(a2-8)Neu5Ac(a2-3)Gal(b1-3)GalNAc(b1-4)[Neu5Ac(a2-8)Neu5Ac(a2-3)]Gal(b1-4)Glc
# Method in brief: as §1
# [12] = molecular target: Neu5Ac(a2-8)Neu5Ac(a2-3)Gal(b1-4)Glc
# Method in brief: as §1
# [13] = molecular target: Neu5Ac(a2-8)Neu5Ac(a2-3)Gal(b1-4)GlcNAc
# Method in brief: as §1
# [14] = molecular target: Neu5Ac(a2-8)Neu5Ac(a2-3)[Gal(b1-3)GalNAc(b1-4)]Gal(b1-4)Glc
# Method in brief: as §1
# [15] = molecular target: Neu5Ac(a2-8)Neu5Ac(a2-3)[GalNAc(b1-4)]Gal(b1-4)Glc
# Method in brief: as §1
# [16] = molecular target: Neu5Ac(a2-8)Neu5Ac(a2-8)Neu5Ac
# Method in brief: as §1
# [17] = molecular target: Neu5Ac(a2-8)Neu5Ac(a2-8)Neu5Ac(a2-3)Gal(b1-4)Glc
# Method in brief: as §1
# [18] = molecular target: Neu5Ac(a2-8)Neu5Ac(a2-8)Neu5Ac(a2-3)[Gal(b1-3)GalNAc(b1-4)]Gal(b1-4)Glc
# Method in brief: as §1
# [19] = molecular target: Neu5Ac(a2-8)Neu5Ac(a2-8)Neu5Ac(a2-3)[GalNAc(b1-4)]Gal(b1-4)Glc
# Method in brief: as §1
# [20] = molecular target: Neu5Ac(a2-8)Neu5Ac(a2-8)Neu5Ac(a2-8)Neu5Ac(a2-3)[GalNAc(b1-4)]Gal(b1-4)Glc
# Method in brief: as §1
# [21] = molecular target: Neu5Ac(a2-8)Neu5Gc(a2-3)Gal(b1-4)GlcNAc
# Method in brief: as §1
# [22] = molecular target: Neu5Ac(b2-6)Gal(b1-4)GlcNAc
# Method in brief: as §1
# [23] = molecular target: Neu5Ac(b2-6)GalNAc
# Method in brief: as §1
# [24] = molecular target: Neu5Ac9Ac(a2-3)Gal(b1-3)GlcNAc
# Method in brief: as §1
# [25] = molecular target: Neu5Ac9Ac(a2-3)Gal(b1-4)GlcNAc
# Method in brief: as §1
# [26] = molecular target: Neu5Ac9Ac(a2-6)Gal(b1-4)GlcNAc
# Method in brief: as §1
# [27] = molecular target: Neu5Gc(a2-3)Gal(b1-3)GlcNAc
# Method in brief: as §1
# [28] = molecular target: Neu5Gc(a2-3)Gal(b1-3)[Fuc(a1-4)]GlcNAc
# Method in brief: as §1
# [29] = molecular target: Neu5Gc(a2-3)Gal(b1-4)Glc
# Method in brief: as §1
# [30] = molecular target: Neu5Gc(a2-3)Gal(b1-4)GlcNAc
# Method in brief: as §1
# [31] = molecular target: Neu5Gc(a2-3)Gal(b1-4)GlcNAc(b1-3)Gal(b1-4)GlcNAc(b1-2)Man(a1-3)[Neu5Gc(a2-3)Gal(b1-4)GlcNAc(b1-3)Gal(b1-4)GlcNAc(b1-2)Man(a1-6)]Man(b1-4)GlcNAc(b1-4)GlcNAc
# Method in brief: as §1
# [32] = molecular target: Neu5Gc(a2-3)Gal(b1-4)[Fuc(a1-3)]GlcNAc
# Method in brief: as §1
# [33] = molecular target: Neu5Gc(a2-6)Gal(b1-4)GlcNAc
# Method in brief: as §1
# [34] = molecular target: Neu5Gc(a2-6)GalNAc
# Method in brief: as §1
# [35] = molecular target: Neu5Gc(a2-8)Neu5Ac(a2-3)Gal(b1-4)GlcNAc
# Method in brief: as §1
# [36] = molecular target: Neu5Gc(a2-8)Neu5Gc(a2-3)Gal(b1-4)GlcNAc
# Method in brief: as §1
# [37] = molecular target: Neu5Gc(a2-8)Neu5Gc(a2-3)Gal(b1-4)GlcNAc(b1-3)Gal(b1-4)GlcNAc
# Method in brief: as §1
# [38] = molecular target: Neu5Gc(a2-8)Neu5Gc(a2-6)Gal(b1-4)GlcNAc
# Method in brief: as §1
# [39] = molecular target: Neu5Gc(b2-6)Gal(b1-4)GlcNAc
# Method in brief: as §1
binder,measurement,setting,value
MpL2 (Macrolepiota procera) (protein) MSTQVSSGQTYKITNVKAGTVIRLSGEDNKSIIGYPYHSGKNQQWTFNWTGKAWTLRSASSGSYLGIEGTPADGTRLVAVNDPFEWHIWRDEANENAFRIFVPFTNYNLDLSGYGDTTPGTPVQLWWTWEGLHQTWTIDRP,glycan array binding signal (z-score),[1],-0.111
same,glycan array binding signal (z-score),[2],-0.069
same,glycan array binding signal (z-score),[3],-0.328
same,glycan array binding signal (z-score),[4],-0.42
same,glycan array binding signal (z-score),[5],-0.28
same,glycan array binding signal (z-score),[6],-0.281
same,glycan array binding signal (z-score),[7],0.636
same,glycan array binding signal (z-score),[8],-0.853
same,glycan array binding signal (z-score),[9],-0.611
same,glycan array binding signal (z-score),[10],-0.101
same,glycan array binding signal (z-score),[11],-0.298
same,glycan array binding signal (z-score),[12],-0.102
same,glycan array binding signal (z-score),[13],-1.21
same,glycan array binding signal (z-score),[14],-0.153
same,glycan array binding signal (z-score),[15],0.053
same,glycan array binding signal (z-score),[16],0.075
same,glycan array binding signal (z-score),[17],-0.152
same,glycan array binding signal (z-score),[18],0.517
same,glycan array binding signal (z-score),[19],0.163
same,glycan array binding signal (z-score),[20],-0.004
same,glycan array binding signal (z-score),[21],-1.01
same,glycan array binding signal (z-score),[22],0.011
same,glycan array binding signal (z-score),[23],-0.124
same,glycan array binding signal (z-score),[24],-0.859
same,glycan array binding signal (z-score),[25],0.478
same,glycan array binding signal (z-score),[26],-0.333
same,glycan array binding signal (z-score),[27],-0.233
same,glycan array binding signal (z-score),[28],-0.159
same,glycan array binding signal (z-score),[29],-0.886
same,glycan array binding signal (z-score),[30],-0.338
same,glycan array binding signal (z-score),[31],-0.147
same,glycan array binding signal (z-score),[32],-0.389
same,glycan array binding signal (z-score),[33],-0.104
same,glycan array binding signal (z-score),[34],-0.346
same,glycan array binding signal (z-score),[35],-0.33
same,glycan array binding signal (z-score),[36],-0.087
same,glycan array binding signal (z-score),[37],-1.02
same,glycan array binding signal (z-score),[38],0.002
same,glycan array binding signal (z-score),[39],-0.151
